# Assay results from the supplement of paper PMC8728848.
# Some of the results follow.
# B1: CCL2 (Coprinopsis cinerea), B3GA02 (protein)
# chain: MDSPAVTLSAGNYIIYNRVLSPRGEKLALTYPGRQRTPVTVSPLDGSSEQAWILRSYDSNSNTWTISPVGSPNSQIGWGAGNVPVVLPPNNYVWTLTLTSGGYNIQDGKRTVSWSLNNATAGEEVSIGADATFSGRWVIEKV
# Legend:
# Test in all cases: glycan array binding signal (z-score within array); higher = stronger binding
# Conditions in all cases: glycan notation: IUPAC condensed, linker removed
# [1] = biological target: Gal(b1-3)[Fuc(a1-4)]GlcNAc(b1-2)Man(a1-3)[Gal(b1-3)[Fuc(a1-4)]GlcNAc(b1-2)Man(a1-6)]Man(b1-4)GlcNAc(b1-4)GlcNAc
# Method in brief: (§1)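 Columns mapping to the same glycan were averaged after glycan names were converted to IUPAC-condensed notation. The data come from 3228 arrays in the Consortium for Functional Glycomics database, limited to those with an available protein sequence. Binding is reported as a within-array Z-score averaged across arrays of one protein sequence and across linkers.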
# [2] = biological target: Gal(b1-3)[Fuc(a1-4)]GlcNAc(b1-2)Man(a1-3)[Gal(b1-3)[Fuc(a1-4)]GlcNAc(b1-2)Man(a1-6)]Man(b1-4)GlcNAc(b1-4)[Fuc(a1-6)]GlcNAc
# Method in brief: as §1
# [3] = biological target: Gal(b1-3)[Fuc(a1-4)]GlcNAc(b1-3)Gal(b1-3)[Fuc(a1-4)]GlcNAc
# Method in brief: as §1
# [4] = biological target: Gal(b1-3)[Fuc(a1-4)]GlcNAc(b1-3)Gal(b1-4)GlcNAc
# Method in brief: as §1
# [5] = biological target: Gal(b1-3)[Fuc(a1-4)]GlcNAc(b1-3)Gal(b1-4)[Fuc(a1-3)]GlcNAc
# Method in brief: as §1
# [6] = biological target: Gal(b1-3)[GlcNAc(b1-6)]GalNAc
# Method in brief: as §1
# [7] = biological target: Gal(b1-3)[Neu5Ac(a2-6)]GalNAc
# Method in brief: as §1
# [8] = biological target: Gal(b1-3)[Neu5Ac(a2-6)]GlcNAc(b1-6)Gal(b1-4)Glc
# Method in brief: as §1
# [9] = biological target: Gal(b1-3)[Neu5Ac(b2-6)]GalNAc
# Method in brief: as §1
# [10] = biological target: Gal(b1-4)GalNAc(a1-3)[Fuc(a1-2)]Gal(b1-4)GlcNAc
# Method in brief: as §1
# [11] = biological target: Gal(b1-4)GalNAc(b1-3)[Fuc(a1-2)]Gal(b1-4)GlcNAc
# Method in brief: as §1
# Gal(b1-4)Glc = biological target: Gal(b1-4)Glc
# Method in brief: as §1
# Gal(b1-4)Glc6S = biological target: Gal(b1-4)Glc6S
# Method in brief: as §1
# Gal(b1-4)GlcNAc = biological target: Gal(b1-4)GlcNAc
# Method in brief: as §1
# [12] = biological target: Gal(b1-4)GlcNAc(a1-6)Gal(b1-4)GlcNAc
# Method in brief: as §1
# [13] = biological target: Gal(b1-4)GlcNAc(b1-2)Man(a1-3)Man(b1-4)GlcNAc(b1-4)GlcNAc
# Method in brief: as §1
# [14] = biological target: Gal(b1-4)GlcNAc(b1-2)Man(a1-3)[Gal(b1-4)GlcNAc(b1-2)Man(a1-6)]Man(b1-4)GlcNAc(b1-4)GlcNAc
# Method in brief: as §1
# [15] = biological target: Gal(b1-4)GlcNAc(b1-2)Man(a1-3)[Gal(b1-4)GlcNAc(b1-2)Man(a1-6)]Man(b1-4)GlcNAc(b1-4)[Fuc(a1-6)]GlcNAc
# Method in brief: as §1
# [16] = biological target: Gal(b1-4)GlcNAc(b1-2)Man(a1-3)[Man(a1-6)]Man(b1-4)GlcNAc(b1-4)GlcNAc
# Method in brief: as §1
# [17] = biological target: Gal(b1-4)GlcNAc(b1-2)Man(a1-6)Man(b1-4)GlcNAc(b1-4)GlcNAc
# Method in brief: as §1
# [18] = biological target: Gal(b1-4)GlcNAc(b1-2)Man(a1-6)[Man(a1-3)]Man(b1-4)GlcNAc(b1-4)GlcNAc
# Method in brief: as §1
# [19] = biological target: Gal(b1-4)GlcNAc(b1-2)[Gal(b1-4)GlcNAc(b1-4)]Man(a1-3)[Gal(b1-4)GlcNAc(b1-2)Man(a1-6)]Man(b1-4)GlcNAc(b1-4)GlcNAc
# Method in brief: as §1
# [20] = biological target: Gal(b1-4)GlcNAc(b1-3)Gal(b1-3)GlcNAc
# Method in brief: as §1
# [21] = biological target: Gal(b1-4)GlcNAc(b1-3)Gal(b1-4)Glc
# Method in brief: as §1
# [22] = biological target: Gal(b1-4)GlcNAc(b1-3)Gal(b1-4)GlcNAc
# Method in brief: as §1
# [23] = biological target: Gal(b1-4)GlcNAc(b1-3)Gal(b1-4)GlcNAc(b1-3)Gal(b1-4)GlcNAc
# Method in brief: as §1
# [24] = biological target: Gal(b1-4)GlcNAc(b1-3)Gal(b1-4)[Fuc(a1-3)]GlcNAc(b1-3)Gal(b1-4)[Fuc(a1-3)]GlcNAc
# Method in brief: as §1
# [25] = biological target: Gal(b1-4)GlcNAc(b1-3)GalNAc
# Method in brief: as §1
# [26] = biological target: Gal(b1-4)GlcNAc(b1-3)[Gal(b1-4)GlcNAc(b1-6)]Gal(b1-4)GlcNAc
# Method in brief: as §1
# [27] = biological target: Gal(b1-4)GlcNAc(b1-3)[GlcNAc(b1-6)]Gal(b1-4)GlcNAc
# Method in brief: as §1
# [28] = biological target: Gal(b1-4)GlcNAc(b1-6)Gal(b1-4)GlcNAc
# Method in brief: as §1
# [29] = biological target: Gal(b1-4)GlcNAc(b1-6)Gal(b1-4)GlcNAc(b1-6)GalNAc
# Method in brief: as §1
# [30] = biological target: Gal(b1-4)GlcNAc(b1-6)GalNAc
# Method in brief: as §1
# [31] = biological target: Gal(b1-4)GlcNAc(b1-6)[Gal(b1-3)]GalNAc
# Method in brief: as §1
# Gal3S(b1-3)GalNAc = biological target: Gal3S(b1-3)GalNAc
# Method in brief: as §1
# Gal3S(b1-3)GlcNAc = biological target: Gal3S(b1-3)GlcNAc
# Method in brief: as §1
# [32] = biological target: Gal3S(b1-3)[Fuc(a1-4)]GlcNAc
# Method in brief: as §1
# Gal3S(b1-4)Glc = biological target: Gal3S(b1-4)Glc
# Method in brief: as §1
# Gal3S(b1-4)Glc6S = biological target: Gal3S(b1-4)Glc6S
# Method in brief: as §1
# Gal3S(b1-4)GlcNAc = biological target: Gal3S(b1-4)GlcNAc
# Method in brief: as §1
# Gal3S(b1-4)GlcNAc6S = biological target: Gal3S(b1-4)GlcNAc6S
# Method in brief: as §1
# [33] = biological target: Gal3S(b1-4)[Fuc(a1-3)]Glc
# Method in brief: as §1
# Gal3S4S(b1-4)GlcNAc = biological target: Gal3S4S(b1-4)GlcNAc
# Method in brief: as §1
# Gal3S6S(b1-4)GlcNAc = biological target: Gal3S6S(b1-4)GlcNAc
# Method in brief: as §1
# Gal3S6S(b1-4)GlcNAc6S = biological target: Gal3S6S(b1-4)GlcNAc6S
# Method in brief: as §1
binder,measurement,setting,value
B1,glycan array binding signal (z-score),[1],0.115
same,glycan array binding signal (z-score),[2],-0.19
same,glycan array binding signal (z-score),[3],-0.264
same,glycan array binding signal (z-score),[4],2.83
same,glycan array binding signal (z-score),[5],-0.246
same,glycan array binding signal (z-score),[6],-0.278
same,glycan array binding signal (z-score),[7],-0.22
same,glycan array binding signal (z-score),[8],-0.285
same,glycan array binding signal (z-score),[9],-0.285
same,glycan array binding signal (z-score),[10],-0.275
same,glycan array binding signal (z-score),[11],-0.264
same,glycan array binding signal (z-score),Gal(b1-4)Glc,-0.292
same,glycan array binding signal (z-score),Gal(b1-4)Glc6S,-0.289
same,glycan array binding signal (z-score),Gal(b1-4)GlcNAc,-0.289
same,glycan array binding signal (z-score),[12],-0.266
same,glycan array binding signal (z-score),[13],-0.27
same,glycan array binding signal (z-score),[14],-0.231
same,glycan array binding signal (z-score),[15],-0.271
same,glycan array binding signal (z-score),[16],-0.289
same,glycan array binding signal (z-score),[17],-0.278
same,glycan array binding signal (z-score),[18],-0.293
same,glycan array binding signal (z-score),[19],-0.268
same,glycan array binding signal (z-score),[20],-0.267
same,glycan array binding signal (z-score),[21],-0.286
same,glycan array binding signal (z-score),[22],-0.294
same,glycan array binding signal (z-score),[23],-0.286
same,glycan array binding signal (z-score),[24],3.98
same,glycan array binding signal (z-score),[25],-0.287
same,glycan array binding signal (z-score),[26],-0.262
same,glycan array binding signal (z-score),[27],-0.293
same,glycan array binding signal (z-score),[28],-0.288
same,glycan array binding signal (z-score),[29],-0.254
same,glycan array binding signal (z-score),[30],-0.287
same,glycan array binding signal (z-score),[31],-0.292
same,glycan array binding signal (z-score),Gal3S(b1-3)GalNAc,-0.277
same,glycan array binding signal (z-score),Gal3S(b1-3)GlcNAc,-0.253
same,glycan array binding signal (z-score),[32],-0.224
same,glycan array binding signal (z-score),Gal3S(b1-4)Glc,-0.285
same,glycan array binding signal (z-score),Gal3S(b1-4)Glc6S,-0.228
same,glycan array binding signal (z-score),Gal3S(b1-4)GlcNAc,-0.29
same,glycan array binding signal (z-score),Gal3S(b1-4)GlcNAc6S,-0.276
same,glycan array binding signal (z-score),[33],-0.268
same,glycan array binding signal (z-score),Gal3S4S(b1-4)GlcNAc,-0.265
same,glycan array binding signal (z-score),Gal3S6S(b1-4)GlcNAc,-0.28
same,glycan array binding signal (z-score),Gal3S6S(b1-4)GlcNAc6S,-0.258
